Measurements: ChEMBL document CHEMBL1157539, “Thousands of chemical starting points for antimalarial lead identification” (Nature, 2010)
Whole data set: some 13,000 compounds, median “IFI” near 4, cut for the highest 2% near 17. This is one part of the list.

Assay: GSK_TCMDC: Inhibition Frequency Index (IFI). The number of non-kinase HTS assays where a compound showed > 50 % inhibition, expressed as a percentage of the number of such assays in which the compound was tested (-0 is zero)
Assay type: functional
With `Nc1ncnc2cc(-c3cccc(S(N)(=O)=O)c3)sc12` the IFI was 2.11%.
`Cc1cccc(Cl)c1S(=O)(=O)N1CCCCC(c2ccc(C(F)(F)F)cc2)=N1` gave an IFI of 2.92%.
`Fc1ccc2[nH]c(-c3ccccc3)nc2c1CN1CCC(N2CCCC2)CC1` showed an IFI of -0%.
Work on `C[C@@H](N/C(=N\c1ccccc1Cl)Nc1ccc(C#N)cc1O)c1ccc(Br)cc1` yielded an IFI of 1.46%.
For `Cc1ccc(/C=C/C(=O)N2CCC(CCN3CCC(c4c[nH]c5ccccc45)CC3)CC2)cc1C`, the IFI was 11%.
`Cc1cc(N2CCCC2)nc(Nc2ccc(NC(=O)c3ccccc3F)cc2)n1` gave an IFI of 8.11%.
In the case of `Cc1cccc2nc(-c3ccc(-c4ccc(CNCCNC(=O)c5ccnn5C)cc4)s3)[nH]c12`, the IFI is reported as 8.91%.
`C(=N\Nc1nccc2sc(-c3cccnc3)cc12)/c1ccncc1` gave an IFI of 6.98%.
Work on `CCCCN(CCCC)CCCCNc1c2ccccc2nc2ccccc12` yielded an IFI of 2.21%.
In the case of `O=C(Cc1cccnc1)Nc1cccc(-c2cccc(-c3nc4cc(C(F)(F)F)ccc4[nH]3)c2)c1`, the IFI is reported as 16.7%.
In the case of `O=C(Nc1ccc(C(=O)OCC2CCCN3CCCCC23)cc1)c1ccc(Cl)c(Cl)c1` (stereo not drawn), the IFI is reported as 1.52%.
Work on `CN1CCC(NCc2cccc(-c3cccc(-c4nc5cc(C(F)(F)F)ccc5[nH]4)c3)c2)CC1` yielded an IFI of 9.52%.
With `Cc1ccc2c(c1)c(-c1ccccc1)c(-c1ccccc1)n2CC(O)CN1CCN(CC=Cc2ccccc2)CC1` (stereo not drawn) the IFI was 5.88%.
Compound `O=C(/C=C/c1ccc(Cl)c(Cl)c1)NCCCCCN1CCC(NC(=O)c2ccc(F)cc2)CC1` has an IFI of 6.35%.
`COc1ccccc1N1CCN(CCCCNC(=O)c2ccc(NC(=O)c3cc4ccccc4o3)cc2)CC1` showed an IFI of 1.56%.
In the case of `Oc1cc2c(cc1CN1CCN(Cc3ccc(Cl)s3)CC1)CCC2`, the IFI is reported as 5%.
For `O=C(NC1CCCCC1)N(Cc1cccc(-c2cccc(CNC3CCCC3)c2)c1)C1CCN(Cc2ccccc2)CC1`, the IFI was 5.84%.
Work on `O=C(/C=C/c1ccc(-c2nc3cc(F)c(F)cc3[nH]2)cc1)NCc1ccc(Cl)c(Cl)c1` yielded an IFI of 1.49%.
In the case of `Nc1c(-c2ccc(C(=O)NCCNCc3ccccc3)cc2)cnn1-c1ccc(C(F)(F)F)cc1`, the IFI is reported as 11.3%.
Compound `CCOC(=O)N1CCN(CCCNc2c3ccccc3nc3ccccc23)CC1` has an IFI of 0.76%.
With `CCCC(C)NC[C@@H](O)[C@H](Cc1ccccc1)NC(=O)c1cc(NCC)cc(N2CCCCS2(=O)=O)c1` (stereo partly drawn) the IFI was 2.9%.
For `CCCCCCCN1CC[C@@H](CCCc2ccnc3ccc(OC)cc23)[C@@H](CCN)C1`, the IFI was 6.52%.
For `Cc1cc(C)c2c(c1)C(=NO)CCN2`, the IFI was 3.57%.
Compound `Oc1ccc(CCNc2nc(NCc3ccccc3Oc3ccc(C(F)(F)F)cc3)nc(N3CCNCC3)n2)cc1` has an IFI of 20%.
Compound `CN(Cc1ccccc1)C(=O)CCNS(=O)(=O)c1cc(Br)cnc1N` has an IFI of -0%.
In the case of `CCc1ccccc1N1CCN(CCCCNC(=O)c2ccc(NC(=O)c3ccc(Cl)cc3)cc2)CC1`, the IFI is reported as 1.77%.
`O=C(NCCN1CCCC1)c1ccc(-c2cccc(-c3nc4cc(F)ccc4[nH]3)c2)cc1` gave an IFI of 2.7%.
For `c1ccc(Oc2ccc(Nc3ccnc4ccc(-c5ccco5)cc34)cc2)cc1`, the IFI was 7.38%.
For `O=C(Nc1ccc(Br)cc1)N1CCC(n2c(-c3ccccc3)nc3cccnc32)CC1`, the IFI was 2.38%.
For `NC(=O)c1cccc(CNC(=O)NC[C@H]2CN(Cc3ccc(Cl)c(Cl)c3)CCO2)c1`, the IFI was 0.78%.
Compound `COc1cc2c(cc1C(F)(F)F)N(C(=O)Nc1cc(-c3ccncc3)cc(-c3cccnc3)c1)CC2` has an IFI of 5.34%.
Compound `Cc1[nH]c2cc(F)ccc2c(=O)c1Cc1ccc(Cl)cc1.Cc1[nH]c2cccc(F)c2c(=O)c1Cc1ccc(Cl)cc1` has an IFI of 1.96%.
Compound `c1ccc(Oc2ccc(Nc3ccnc4cc(-c5ccc(CN6CCCCC6)o5)ccc34)cc2)nc1` has an IFI of 7.86%.
For `O=C(Nc1ccc(Cl)c(Cl)c1)Nc1ccc(F)c([N+](=O)[O-])c1`, the IFI was 16.7%.
With `O=C(NC1CC1)c1ccc(N2CCOc3ccc(Cl)cc32)s1` the IFI was 6.94%.
Compound `CN1CCN(c2ccc(-c3cc(-c4cc(F)c(F)c(F)c4)cnc3N)cc2)CC1` has an IFI of 11.5%.
`CN1CCCN(Cc2ccc(-c3cccc(NC(=O)c4cccc(Cl)c4)c3)cc2)CC1` gave an IFI of 3.85%.
`Cc1[nH]c(C)c(-c2ccc(-c3ccc(C#N)cc3)nc2)c(=O)c1Br` showed an IFI of 0.92%.
In the case of `COc1cc(NC(=O)c2cc([N+](=O)[O-])ccc2NC(=O)CNC2CCCC(C)C2C)cc(OC)c1` (stereo not drawn), the IFI is reported as 5.56%.
`c1ccc2[nH]c(-c3ccc(-c4ccc(CN5CCN(c6ccncc6)CC5)cc4)cc3)nc2c1` gave an IFI of 6.94%.
Work on `c1ccc(CNCc2cccc(-c3csc(-c4nc5ccccc5[nH]4)c3)c2)cc1` yielded an IFI of 4.76%.
`Cc1ccc(C)c(NC(=O)Nc2ccc(C)c(-c3ccc(C(=O)Nc4ccncc4)cc3)c2)c1` gave an IFI of 14.1%.
In the case of `O=C(Nc1cccc(-c2csc(-c3nc4ccccc4[nH]3)c2)c1)c1cc(=O)c2ccccc2[nH]1`, the IFI is reported as 0.93%.
For `COc1c(C2CCN(CCCCNC(=O)c3cc(-c4ccc(Cl)cc4)[nH]c3C)CC2)ccc2c1CCCC2`, the IFI was 12.4%.
`COc1ccc(-c2ccc(NC(=O)c3ccc(Cl)cc3)cc2)cc1CN1CCC(O)CC1` showed an IFI of 5.26%.
Compound `Cc1cccc(-c2nc(Nc3ccncc3)c3cc(N(C)C)ccc3n2)n1` has an IFI of 4%.
`O=[N+]([O-])c1ccc2nccnc2c1` gave an IFI of 1.44%.
With `CCCC[C@H](NC(=O)O[C@H](COc1ccc(OCc2ccccc2)cc1)C(C)(C)C)C(=O)C(=O)Nc1cc[nH]n1` the IFI was 7.83%.
`Clc1cccc(Cl)c1CCNCC1CCN(CC2CCCCC2)CC1` gave an IFI of 6.52%.
`CN(C)CCNc1ncnc2c1[nH]c1ccc(Br)cc12` gave an IFI of 0.76%.
Work on `O=C(Nc1ccc(Cl)c(Cl)c1)N(Cc1ccccc1Br)C1CCNCC1` yielded an IFI of 3.73%.
`CN(C)CCNCc1cccc(-c2ccc3c(Nc4cc(O)c(Cl)cc4F)ccnc3c2)c1` gave an IFI of 3.68%.
Compound `CC(C)(C)C1CCC(CC2=C(C(=O)O)c3ccccc3C2=O)CC1` (stereo not drawn) has an IFI of 1.46%.
Compound `O=C(CN1CCCCC1)Nc1ccc(Nc2nccc(NCC(O)c3ccccc3)n2)cc1` (stereo not drawn) has an IFI of 4.12%.
In the case of `O=C(/C=C/c1ccc(Cl)c(Cl)c1)NCCCCCN1CCC(C(=O)Nc2ccc(F)c(Cl)c2)CC1`, the IFI is reported as 13.2%.
Work on `Cc1nn(-c2ccnc3cc(Cl)ccc23)c(C)c1C(=O)NCc1cc(Cl)cc(Cl)c1` yielded an IFI of -0%.
`Clc1cc2c(Nc3ccc(Oc4ccccc4)cc3)ccnc2cc1-c1ccc(CNCCN2CCOCC2)o1` showed an IFI of 3.76%.
Work on `COc1ccc(C=NNc2cc(C)nc3ccc(OC)cc23)c(OC)c1` yielded an IFI of 2.94%.
